In publication PMC4892432:
Residue numbers refer to the chain shown, from its start. Results are given in words; binding and its absence hold for the method and conditions named. Some entries that bind do so weakly or less than the wild type.

Chains of the proteins cited; added tags and fusions are not shown. Residues count along the entry.
UniProt P09326, residues 27-220: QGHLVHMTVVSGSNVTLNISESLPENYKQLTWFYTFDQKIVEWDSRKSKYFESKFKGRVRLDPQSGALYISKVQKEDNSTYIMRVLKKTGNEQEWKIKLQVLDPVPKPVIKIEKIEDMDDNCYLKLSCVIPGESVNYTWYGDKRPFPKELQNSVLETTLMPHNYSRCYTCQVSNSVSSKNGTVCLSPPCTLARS

Assays:
[1] = target: T1, 2B4 on NK cells (endogenous) (human (endogenous in NK92.C1, NKL and primary NK cells)) (UniProt Q9BZW8); assay: flow cytometry on cells; masking of 2B4 on NK cells for soluble CD48-ILZ by CD48 on the same cell, lifted by PI-PLC treatment
T1 sequence: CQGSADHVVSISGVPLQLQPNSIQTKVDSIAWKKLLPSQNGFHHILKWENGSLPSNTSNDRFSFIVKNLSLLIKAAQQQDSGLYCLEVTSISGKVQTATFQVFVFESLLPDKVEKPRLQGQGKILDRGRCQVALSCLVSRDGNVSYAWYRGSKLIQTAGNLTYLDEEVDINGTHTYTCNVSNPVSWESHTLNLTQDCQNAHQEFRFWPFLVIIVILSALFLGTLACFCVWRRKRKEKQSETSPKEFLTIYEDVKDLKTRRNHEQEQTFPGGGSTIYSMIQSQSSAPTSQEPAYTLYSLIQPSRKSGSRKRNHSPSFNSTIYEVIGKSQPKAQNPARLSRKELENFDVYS

[2] = target: T2, 2B4 mutant K68A/E70A (human) (UniProt Q9BZW8); assay: flow cytometry on cells; binding of sCD48 to the 2B4 mutant K68A/E70A (electronic supplementary figure S1); cells and conditions not given; only the binder purified
T2 sequence: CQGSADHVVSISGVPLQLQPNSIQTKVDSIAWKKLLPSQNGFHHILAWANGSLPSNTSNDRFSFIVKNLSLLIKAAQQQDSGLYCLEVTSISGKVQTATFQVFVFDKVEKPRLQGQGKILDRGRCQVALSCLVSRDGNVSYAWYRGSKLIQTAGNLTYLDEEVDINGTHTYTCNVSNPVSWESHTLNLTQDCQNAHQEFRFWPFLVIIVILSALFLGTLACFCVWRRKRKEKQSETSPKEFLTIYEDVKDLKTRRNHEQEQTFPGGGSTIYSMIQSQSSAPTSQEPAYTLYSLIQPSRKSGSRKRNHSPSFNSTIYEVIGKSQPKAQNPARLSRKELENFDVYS

[3] = target: T3, 2B4KHT (2B4 K54A, H65A, T110A) on HEK293T cells (human) (UniProt Q9BZW8); assay: flow cytometry on cells; staining of stably transfected HEK293T cells (2B4 wt, 2B4KHT, 2B4 βs) with soluble CD48-ILZ fusion protein; control ILZ fusion protein as staining control; only the binder purified
T3 sequence: T2 sequence with K33A, H44A, A47K, A49E, T89A

[4] = target: T4, 2B4 wt on stably transfected HEK293T cells (human) (UniProt Q9BZW8); assay: as above
T4 sequence: T2 sequence with A47K, A49E

[5] = target: T5, 2B4 βs (2B4 with the CD4 β-strand motif in place of the linker) on HEK293T cells (human) (UniProt Q9BZW8); assay: as above
T5 sequence: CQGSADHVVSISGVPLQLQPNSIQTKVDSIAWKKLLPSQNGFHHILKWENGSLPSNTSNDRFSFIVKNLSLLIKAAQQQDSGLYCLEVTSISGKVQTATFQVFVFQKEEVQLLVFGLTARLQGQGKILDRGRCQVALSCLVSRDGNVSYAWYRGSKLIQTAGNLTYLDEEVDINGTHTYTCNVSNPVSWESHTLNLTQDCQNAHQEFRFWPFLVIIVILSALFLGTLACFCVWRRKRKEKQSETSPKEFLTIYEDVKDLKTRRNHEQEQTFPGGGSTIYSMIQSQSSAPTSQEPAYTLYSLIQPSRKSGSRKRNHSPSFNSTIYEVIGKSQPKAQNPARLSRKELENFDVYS

[6] = target: T1, 2B4 on NK cells (endogenous) (human (endogenous in NK92.C1, NKL and primary NK cells)); assay: condition: only untreated NK cells that carry CD48 on the same cell (no PI-PLC); flow cytometry on cells; staining of untreated NK92.C1 and primary NK cells, which also express CD48, with soluble CD48-ILZ; NKp30-ILZ as staining control; only the binder purified
[7] = target: T1, 2B4 on NK cells (endogenous) (human (endogenous in NK92.C1, NKL and primary NK cells)); assay: flow cytometry on cells; staining of NK92.C1 and primary NK cells with soluble CD48-ILZ after 1 U/ml PI-PLC for 1 h at 37°C (removes CD48 and all other GPI-anchored proteins); NKp30-ILZ as negative control; only the binder purified

Substance	binding [1]	binding [2]	binding [3]	binding [4]	binding [5]	binding [6]	binding [7]
CD48 on NK cells (endogenous) (from UniProt P09326 27-220) (ligand)	binds	–	–	–	–	–	–
soluble CD48-ILZ fusion protein (from UniProt P09326 27-220) (ligand)	–	binds	no binding	binds	binds	no binding	binds
